According to patent publication US20230278972A1, “SUBSTITUTED HALOALKYL SULFONANILIDE HERBICIDES” (FMC Corporation, priority 2020, published 2023):

What was measured:
Conditions in all cases: Flood, 250 g ai/ha; visual rating after 13 to 15 days; scale of 0 to 100 where 0 is no effect and 100 is complete control
[1] = test system: rice (Oryza sativa); experiment: Test B flooded paddy test, rice
[2] = test system: ducksalad (Heteranthera limosa); experiment: Test B flooded paddy test, ducksalad
[3] = test system: barnyardgrass (Echinochloa crus-galli); experiment: Test B flooded paddy test, barnyardgrass
[4] = test system: sedge, umbrella (small-flower umbrella sedge, Cyperus difformis); experiment: Test B flooded paddy test, sedge, umbrella

SMILES	Plant response rating, Rice [1]	Plant response rating, Ducksalad [2]	Plant response rating, Barnyardgrass [3]	Plant response rating, Sedge, Umbrella [4]
Cc1cc(C)c(C2=NOC3CCCCC23)cc1NS(=O)(=O)C(F)(F)F (centres unmarked) [Compound 131]	0	50	85	90
Cc1cc(C)c(N(S(=O)(=O)C(F)(F)F)S(=O)(=O)C(F)(F)F)cc1C1=NOC(C(C)(C)C)C1 (centres unmarked) [Compound 127]	10	45	25	90
Cc1cc(C)c(C2=NOC3(C2)CC(C)OC(C)C3)cc1NS(=O)(=O)C(F)(F)F (single isomer, unassigned) [Compound 171]	45	30	55	60
Cc1cc(C)c(N(S(=O)(=O)C(F)(F)F)S(=O)(=O)C(F)(F)F)cc1C1=NOC(C)(CCl)C1 (centres unmarked) [Compound 227]	0	0	0	0
CCn1cc(-c2cc(N(S(=O)(=O)C(F)(F)F)S(=O)(=O)C(F)(F)F)c(C)cc2C)c(=O)n(C)c1=O [Compound 30]	70	20	0	35
Cc1cc(C)c(C(=O)N2CCC3(CCCCC3)CC2)cc1NS(=O)(=O)C(F)(F)F [Compound 195]	0	0	0	0
Cc1cc(C)c(N(S(=O)(=O)C(F)(F)F)S(=O)(=O)C(F)(F)F)cc1C1=NOC2(CCSCC2)C1 [Compound 114]	0	0	0	0
COc1cc(Cl)c(NS(=O)(=O)C(F)(F)F)cc1C(=O)N1CCOCC1 [Compound 258]	0	65	0	95
Cc1cc(C)c(C(=O)N2COC(C)(C)C2)cc1NS(=O)(=O)C(F)(F)F [Compound 112]	60	50	35	65
Cc1cc(Cl)c(NS(=O)(=O)C(F)(F)F)cc1C1=NOC(C)(C)C1 [Compound 203]	20	30	25	80
Cc1cc(C)c(C(=O)N2CCC(C#N)CC2)cc1NS(=O)(=O)C(F)(F)F [Compound 11]	0	0	0	0
Cc1cc(C)c(C(=O)N2CCN(C)CC2)cc1NS(=O)(=O)C(F)(F)F [Compound 10]	0	0	0	0
COC(=O)C1CCN(C(=O)c2cc(NS(=O)(=O)C(F)(F)F)c(C)cc2C)CC1 [Compound 50]	0	0	0	0
Cc1cc(Cl)c(NS(=O)(=O)C(F)(F)F)cc1C1=NOC2(CCCCC2)C1 [Compound 221]	0	30	0	95
Cc1cc(Cl)c(C(=O)N2CCCCC2)cc1N(S(=O)(=O)C(F)(F)F)S(=O)(=O)C(F)(F)F [Compound 253]	0	75	0	98
Cc1c(NS(=O)(=O)C(F)(F)F)cc(C(=O)N2CCC(F)CC2)c(C)c1F [Compound 109]	10	80	0	90
COc1cc(-c2cc(NS(=O)(=O)C(F)(F)F)c(C)cc2C)c(=O)n(C)n1 [Compound 70]	40	25	0	95
CO[C@@H]1CCCN(C(=O)c2cc(N(S(=O)(=O)C(F)(F)F)S(=O)(=O)C(F)(F)F)c(C)cc2C)C1 [Compound 95]	0	35	0	40
Cc1cc(F)c(C(=O)N2CC(C)OC(C)C2)cc1N(S(=O)(=O)C(F)(F)F)S(=O)(=O)C(F)(F)F (centres unmarked) [Compound 235]	0	80	0	55

SMILES	Plant response rating, Rice [1]	Plant response rating, Ducksalad [2]	Plant response rating, Barnyardgrass [3]	Plant response rating, Sedge, Umbrella [4]
Cc1cc(F)c(-c2ccnn(C)c2=O)cc1NS(=O)(=O)C(F)(F)F [Compound 63]	0	15	0	75
COc1cc(C)c(NS(=O)(=O)C(F)(F)F)cc1-c1ccnn(C)c1=O [Compound 81]	0	0	0	0
Cc1cc(-c2cc(NS(=O)(=O)C(F)(F)F)c(C)cc2C)c(=O)n(C)n1 [Compound 62]	0	30	0	50
COC(=O)N(c1cc(C(=O)N2CCCC(OC)C2)c(C)cc1C)S(=O)(=O)C(F)(F)F (centres unmarked) [Compound 115]	25	65	30	70
Cc1cc(C)c(C(=O)N2CCC3(CCCC3)C2)cc1NS(=O)(=O)C(F)(F)F [Compound 225]	0	75	20	98
Cc1cc(C)c(N2CCC3(CCCC3)C2=O)cc1NS(=O)(=O)C(F)(F)F [Compound 270]	0	45	25	90
Cc1cc(C)c(N(S(=O)(=O)C(F)(F)F)S(=O)(=O)C(F)(F)F)cc1-c1cc(C(C)C)nn(C)c1=O [Compound 47]	15	0	0	80
Cc1cc(Cl)c(NS(=O)(=O)C(F)(F)F)cc1C(=O)N1CC(C)OC(C)C1 (centres unmarked) [Compound 20]	0	70	20	90
Cc1cc(C)c(C(=O)N2CCC(C#N)CC2)cc1NS(=O)(=O)C(F)(F)F [Compound 162]	20	60	25	70
CSc1cc(-c2cc(NS(=O)(=O)C(F)(F)F)c(C)cc2C)c(=O)n(C)n1 [Compound 36]	0	0	0	0
Cc1cc(C)c(C(=O)N2CCC(Cl)CC2)cc1NS(=O)(=O)C(F)(F)F [Compound 242]	10	75	10	80
CSC1CCCN(C(=O)c2cc(NS(=O)(=O)C(F)(F)F)c(C)cc2C)C1 (centres unmarked) [Compound 3]	0	80	0	70
Cc1cc(C)c(-c2cc(C(F)(F)F)nn(C)c2=O)cc1NS(=O)(=O)C(F)(F)F [Compound 71]	40	0	0	95
Cc1cc(C)c(N(S(=O)(=O)C(F)(F)F)S(=O)(=O)C(F)(F)F)cc1C1=NOC2(CCC3(CC2)OCCO3)C1 [Compound 136]	20	60	10	80
COC1CCN(C(=O)c2cc(NS(=O)(=O)C(F)(F)F)c(C)cc2C)C1 (centres unmarked) [Compound 113]	15	55	0	65
CCc1cc(-c2cc(N(S(=O)(=O)C(F)(F)F)S(=O)(=O)C(F)(F)F)c(C)cc2C)c(=O)n(C)n1 [Compound 28]	0	0	0	0
Cc1cc(C)c(N(COC(=O)C2CCCC2)S(=O)(=O)C(F)(F)F)cc1C1=NOC2(CCCC2)C1 [Compound 150]	0	30	95	80
Cc1cc(C)c(N(S(=O)(=O)C(F)(F)F)S(=O)(=O)C(F)(F)F)cc1N1CC2(CCOCC2)OC1=O [Compound 157]	15	55	20	70
Cc1cc(C)c(N(S(=O)(=O)C(F)(F)F)S(=O)(=O)C(F)(F)F)cc1C1=NOC2(CCC2)C1 [Compound 196]	0	75	0	90
